Results reported in publication PMC7229227.
No constants are given. Whether binding was seen depends on the method and setting. Binding seen in cells or lysates may run through a third protein. Some entries that bind do so weakly or less than the wild type. Tags and fused reporters may be left off the sequences shown.

Chains of the proteins cited; added tags and fusions are not shown.
UniProt O14187: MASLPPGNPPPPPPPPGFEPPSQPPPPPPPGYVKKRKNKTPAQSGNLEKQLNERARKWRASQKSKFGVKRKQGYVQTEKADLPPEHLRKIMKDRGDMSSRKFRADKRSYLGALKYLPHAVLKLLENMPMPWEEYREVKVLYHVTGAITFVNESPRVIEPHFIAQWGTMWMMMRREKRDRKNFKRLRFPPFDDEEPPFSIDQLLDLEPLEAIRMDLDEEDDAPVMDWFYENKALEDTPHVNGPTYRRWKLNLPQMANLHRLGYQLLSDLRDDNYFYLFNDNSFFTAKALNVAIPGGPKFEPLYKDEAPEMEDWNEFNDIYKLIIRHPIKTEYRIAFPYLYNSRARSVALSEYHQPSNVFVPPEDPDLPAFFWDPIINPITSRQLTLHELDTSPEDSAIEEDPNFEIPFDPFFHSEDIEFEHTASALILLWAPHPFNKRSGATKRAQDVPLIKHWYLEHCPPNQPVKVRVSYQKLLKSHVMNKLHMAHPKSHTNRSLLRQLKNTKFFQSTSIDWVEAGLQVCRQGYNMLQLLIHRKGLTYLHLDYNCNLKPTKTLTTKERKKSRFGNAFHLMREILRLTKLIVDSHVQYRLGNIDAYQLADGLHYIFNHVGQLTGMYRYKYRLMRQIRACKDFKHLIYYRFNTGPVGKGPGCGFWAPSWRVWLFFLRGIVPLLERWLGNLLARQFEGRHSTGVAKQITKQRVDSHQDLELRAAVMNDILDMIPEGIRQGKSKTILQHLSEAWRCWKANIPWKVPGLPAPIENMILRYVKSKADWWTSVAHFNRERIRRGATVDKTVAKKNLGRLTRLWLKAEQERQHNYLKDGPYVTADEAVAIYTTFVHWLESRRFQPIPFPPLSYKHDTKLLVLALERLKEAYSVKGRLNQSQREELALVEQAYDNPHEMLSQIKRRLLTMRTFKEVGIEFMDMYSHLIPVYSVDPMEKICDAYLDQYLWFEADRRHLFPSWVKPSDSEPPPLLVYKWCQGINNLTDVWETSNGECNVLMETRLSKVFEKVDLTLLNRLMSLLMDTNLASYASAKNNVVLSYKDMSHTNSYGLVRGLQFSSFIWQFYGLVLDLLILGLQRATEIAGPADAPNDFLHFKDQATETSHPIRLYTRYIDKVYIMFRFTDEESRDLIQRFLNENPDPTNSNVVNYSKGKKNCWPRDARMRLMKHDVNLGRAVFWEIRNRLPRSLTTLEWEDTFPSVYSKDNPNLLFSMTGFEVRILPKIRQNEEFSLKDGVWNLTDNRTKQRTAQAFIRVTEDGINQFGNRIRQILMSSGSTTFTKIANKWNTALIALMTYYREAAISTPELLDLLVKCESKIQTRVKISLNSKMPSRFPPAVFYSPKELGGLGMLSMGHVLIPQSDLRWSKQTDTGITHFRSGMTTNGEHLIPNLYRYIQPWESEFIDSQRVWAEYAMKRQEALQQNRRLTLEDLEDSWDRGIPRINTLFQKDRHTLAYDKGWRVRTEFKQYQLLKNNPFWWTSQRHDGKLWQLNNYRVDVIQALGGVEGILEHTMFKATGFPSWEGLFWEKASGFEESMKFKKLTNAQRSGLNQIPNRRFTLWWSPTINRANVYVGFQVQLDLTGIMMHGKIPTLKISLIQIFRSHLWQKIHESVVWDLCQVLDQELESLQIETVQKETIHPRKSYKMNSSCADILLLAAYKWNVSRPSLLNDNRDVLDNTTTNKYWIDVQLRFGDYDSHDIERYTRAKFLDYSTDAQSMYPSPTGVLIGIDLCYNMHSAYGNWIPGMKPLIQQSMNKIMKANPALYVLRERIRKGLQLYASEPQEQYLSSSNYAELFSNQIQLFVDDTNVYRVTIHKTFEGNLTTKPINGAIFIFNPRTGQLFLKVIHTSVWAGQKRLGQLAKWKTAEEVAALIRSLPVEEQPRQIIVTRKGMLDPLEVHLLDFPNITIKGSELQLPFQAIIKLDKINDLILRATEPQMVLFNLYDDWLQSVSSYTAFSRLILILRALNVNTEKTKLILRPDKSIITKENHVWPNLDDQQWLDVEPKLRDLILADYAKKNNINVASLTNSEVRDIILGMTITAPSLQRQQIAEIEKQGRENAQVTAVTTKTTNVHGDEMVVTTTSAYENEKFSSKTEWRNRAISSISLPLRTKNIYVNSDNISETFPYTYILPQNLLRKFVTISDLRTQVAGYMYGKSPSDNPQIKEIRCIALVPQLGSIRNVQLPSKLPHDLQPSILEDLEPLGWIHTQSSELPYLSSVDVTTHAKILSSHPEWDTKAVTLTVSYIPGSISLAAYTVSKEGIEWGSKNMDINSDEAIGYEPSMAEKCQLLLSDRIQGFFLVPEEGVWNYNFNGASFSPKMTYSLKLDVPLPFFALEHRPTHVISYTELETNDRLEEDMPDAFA
UniProt O94529: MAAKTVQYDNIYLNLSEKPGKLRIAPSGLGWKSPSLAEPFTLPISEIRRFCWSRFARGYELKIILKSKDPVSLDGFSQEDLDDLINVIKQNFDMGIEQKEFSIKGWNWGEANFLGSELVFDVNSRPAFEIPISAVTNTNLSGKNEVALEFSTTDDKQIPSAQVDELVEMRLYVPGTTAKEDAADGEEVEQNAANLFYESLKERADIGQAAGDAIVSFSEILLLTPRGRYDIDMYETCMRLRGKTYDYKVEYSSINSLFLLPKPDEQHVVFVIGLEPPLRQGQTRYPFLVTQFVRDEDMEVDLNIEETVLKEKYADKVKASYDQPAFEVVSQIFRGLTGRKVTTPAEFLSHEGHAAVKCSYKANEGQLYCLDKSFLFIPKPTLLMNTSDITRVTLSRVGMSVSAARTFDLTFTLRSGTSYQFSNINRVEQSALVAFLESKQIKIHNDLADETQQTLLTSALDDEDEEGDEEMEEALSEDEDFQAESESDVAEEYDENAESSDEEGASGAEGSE

Assays:
Pir2-GFP (S. pombe) [1] = target: T1, Pir2-GFP (S. pombe) (UniProt O94326); assay: co-sedimentation; S. pombe lysate (20 mM Tris pH 7.5, 137 mM NaCl, 10% glycerol, 0.5% NP40, 2 mM EDTA), 150 µg on a linear 20–50% glycerol gradient, 81,400 × g, 19 h; fractions by western blot
T1 sequence: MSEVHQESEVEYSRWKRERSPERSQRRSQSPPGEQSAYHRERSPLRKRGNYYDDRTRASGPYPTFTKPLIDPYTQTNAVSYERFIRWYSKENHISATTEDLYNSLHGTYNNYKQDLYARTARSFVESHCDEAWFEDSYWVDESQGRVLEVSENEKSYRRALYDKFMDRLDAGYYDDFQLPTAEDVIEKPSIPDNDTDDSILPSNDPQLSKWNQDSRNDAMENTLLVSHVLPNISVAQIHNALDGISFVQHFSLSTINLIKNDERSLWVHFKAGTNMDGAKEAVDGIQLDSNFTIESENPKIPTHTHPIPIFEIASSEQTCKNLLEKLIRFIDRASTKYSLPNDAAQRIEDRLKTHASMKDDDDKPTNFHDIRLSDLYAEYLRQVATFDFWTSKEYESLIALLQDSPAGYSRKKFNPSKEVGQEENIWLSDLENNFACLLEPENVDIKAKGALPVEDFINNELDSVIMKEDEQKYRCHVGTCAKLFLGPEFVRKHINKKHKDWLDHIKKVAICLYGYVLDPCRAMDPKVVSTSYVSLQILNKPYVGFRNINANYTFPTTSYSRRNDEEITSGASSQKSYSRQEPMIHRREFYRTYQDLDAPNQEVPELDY

Pir2-GFP (S. pombe) [2] = target: T1, Pir2-GFP (S. pombe); assay: co-IP; S. pombe lysates (50 mM Tris-HCl pH8, 150 mM NaCl, 10% glycerol, 1% NP-40, 5 mM EDTA) incubated with anti-GFP on protein A magnetic beads or IgG sepharose, 2 h, 4 °C; western blot; Hrr1-TAP/Pir2-GFP also in the cwf10-1 mutant
Pir2-GFP (S. pombe) [3] = target: T1, Pir2-GFP (S. pombe); assay: co-IP; as the S. pombe co-IP, proteins bound to beads washed and treated with 50 U/ml Benzonase (DNA and RNA nuclease) for 30 min
Pir2-GFP (S. pombe) [4] = target: T1, Pir2-GFP (S. pombe); assay: co-sedimentation; S. pombe lysate (20 mM Tris pH 7.5, 137 mM NaCl, 10% glycerol, 0.5% NP40, 2 mM EDTA), 150 µg on a linear 20–50% glycerol gradient, 81,400 × g, 19 h; fractions by western blot; remark: listed apart in the source
Pir2-GFP (S. pombe) [5] = target: T1, Pir2-GFP (S. pombe); assay: co-IP; S. pombe lysates (50 mM Tris-HCl pH8, 150 mM NaCl, 10% glycerol, 1% NP-40, 5 mM EDTA) incubated with anti-GFP on protein A magnetic beads or IgG sepharose, 2 h, 4 °C; western blot; Hrr1-TAP/Pir2-GFP also in the cwf10-1 mutant; remark: listed apart in the source

Spp42-HA (from UniProt O14187 1-2363)
binding (Pir2-GFP (S. pombe) [1]): no binding

Pob3-MYC (from UniProt O94529 1-512)
binding (Pir2-GFP (S. pombe) [2]): binds
binding (Pir2-GFP (S. pombe) [3]): no binding (condition: with Benzonase (50 U/ml, 30 min))

B1: Cbc1 (FLAG-tagged) (protein, UniProt O14253 1-780)
chain: MSSYRGSTRPRKRTREGENYGFRPHRGNSQELLAARIKKDITFLADPRGNSVAADDINYVAMSLSREANDPETISTILDCIQTTAFIIPVKIPHLATLIIRASLRVPLILEKAAAYFCLQYFTNLNSFLYYEAKVDLRMLICMSFALQPGTLKPLFSLLADAISKETKPSVWGDNFLRIILINLPYFIAANNDLGKKDFANEILDQCEIYVRHRKSSITLSNPLSIHDNLSEEELDLLYKQLILSRENDFTFPYISQPWKFFESDFVHIVPVSPSIPEWTFQPTPQQNELPSFKRFFELFNNFEIRTTPDASDVAASIFRDISVDVINHLEFNRVEAAQVLTDLDVYFTYKTFALRGTPVNELPNLDPSESRWKAEDIIVEAVLGELLGSQNTTYKPVYYHSLLIECCRIAPKILAPTFGRVIRLMYTMSSDLPLQTLDRFIDWFSHHLSNFNFHWKWNEWIPDVELDDLHPKKVFMRETITRELILSYYTRISDSLPEELRCLLGEQPSGPNFVYENETHPLYQQSSQIIEALRLHKPLEELDIILQSEEIQNSETSAVRLVMSCAYSLGSRSFSHALNVFEKHLNTLKHFSRKSLDSEIEVVDELFSFWKLQPFNAVMWLDKMLNYSIISITSIIEWLIKQDVTIWSRSYTWSLVNTTFNKLAARLRRSVSNKEDSSLINEANEEKEIVTNLLLSALRALISENAENIWVSHWLNLMLKYVESNFLSVKKDTIEEANEPVQENTSEEQEDTKMQPVDAVDEQPSENNQTAADATNEEK
binding (Pir2-GFP (S. pombe) [4]): binds

B2: Cwf10-FLAG (protein, UniProt O94316 1-984)
chain: MMEEDLYDEFGNYIGPENEEDEEELFPQAPSPTIAQVPSFEEVIPDEELEDVERAEEMALSHLEPQNAVVLHEDKQYYPSAEEVYGSNVDIMVQEQDTQPLSQPIIEPIRHKRIAIETTNVPDTVYKKEFLFGLLTGTDDVRSFIVAGHLHHGKSALLDLLVYYTHPDTKPPKRRSLRYTDTHYLERERVMSIKSTPLTLAVSDMKGKTFAFQCIDTPGHVDFVDEVAAPMAISDGVVLVVDVIEGVMINTTRIIKHAILHDMPIVLVLNKVDRLILELRLPPNDAYHKLRHVIDEVNDNICQISKDLKYRVSPELGNVCFASCDLGYCFTLSSFAKLYIDRHGGIDVDLFSKRLWGDIYFDSKTRKFAKQSLDGSGVRSFVHFILEPLYKLHTLTISDEAEKLKKHLSSFQIYLKPKDYLLDPKPLLQLICASFFGFPVGFVNAVTRHIPSPRENAARKASQSYIGPINSSIGKAILEMSREESAPLVMHVTKLYNTVDANNFYAFARVYSGQVKKGQKVKVLGENYSLEDEEDMVVAHIAEICVPCARYRLHVDGAVAGMLVLLGGVDNSISKTATIVSDNLKDDPYIFRPIAHMSESVFKVAVEPHNPSELPKLLDGLRKTNKSYPLSITKVEESGEHTIFGTGEMYMDCLLYDLRTLYSEIEIRVSDPVARFCETAVDTSSIKCFSDTPNKKNRITMVVEPLEKGISNDIENGKVNINWPQKRISEFFQKNYDWDLLASRSIWAFGPDDRGTNILRDDTLSTDVDKNVLNSVKEYIKQGFQWGTREGPLCDETIRNVNFRLMDVVLAPEQIYRGGGQIIPTARRVCYSSFLTASPRLMEPVYMVEVHAPADSLPIIYDLLTRRRGHVLQDIPRPGSPLYLVRALIPVIDSCGFETDLRVHTQGQAMCQMVFDHWQVVPGDPLDKSIKPKPLEPARGSDLARDFLIKTRRRKGLVEDVSTTRYFDQEMIDSLKEAGVVLSL
binding (Pir2-GFP (S. pombe) [5]): binds
binding (Pir2-GFP (S. pombe) [4]): binds

B3: Cwf21 (protein, UniProt O14161 1-293)
chain: MSYNGIGLPTPRGSGTNGYVMRNLSHVKKYDKNTNLQSNRNAKALEKRVQDPSISEHECRRQIESKLLLYREQLLEEVSSQHSTDAAASDSNTNFGTENPKPPKAIIKDEQSQSKTKSLDEADVEILVQKYREQLLKELQLQKSTEKGKNFESILQPQKRKETRGFHSKNDDDGRLEERDDLRSSVDDDYYDYPRYSERKSLNSKRHVDNYNENRRRHYDSYSSYDELERRRSSNESYSRRSELPRRDYNRHDERERYSYHRRRERSNSPSYTKNESIPVVDRDSSPEGGEIV
binding (Pir2-GFP (S. pombe) [4]): binds

B4: Clr3-MYC (enzyme, UniProt P56523 1-687)
chain: MLASNSDGASTSVKPSDDAVNTVTPWSILLTNNKPMSGSENTLNNESHEMSQILKKSGLCYDPRMRFHATLSEVDDHPEDPRRVLRVFEAIKKAGYVSNVPSPSDVFLRIPAREATLEELLQVHSQEMYDRVTNTEKMSHEDLANLEKISDSLYYNNESAFCARLACGSAIETCTAVVTGQVKNAFAVVRPPGHHAEPHKPGGFCLFNNVSVTARSMLQRFPDKIKRVLIVDWDIHHGNGTQMAFYDDPNVLYVSLHRYENGRFYPGTNYGCAENCGEGPGLGRTVNIPWSCAGMGDGDYIYAFQRVVMPVAYEFDPDLVIVSCGFDAAAGDHIGQFLLTPAAYAHMTQMLMGLADGKVFISLEGGYNLDSISTSALAVAQSLLGIPPGRLHTTYACPQAVATINHVTKIQSQYWRCMRPKHFDANPKDAHVDRLHDVIRTYQAKKLFEDWKITNMPILRDSVSNVFNNQVLCSSNFFQKDNLLVIVHESPRVLGNGTSETNVLNLNDSLLVDPVSLYVEWAMQQDWGLIDINIPEVVTDGENAPVDILSEVKELCLYVWDNYVELSISKNIFFIGGGKAVHGLVNLASSRNVSDRVKCMVNFLGTEPLVGLKTASEEDLPTWYYRHSLVFVSSSNECWKKAKRAKRRYGRLMQSEHTETSDMMEQHYRAVTQYLLHLLQKARPTSQ
binding (Pir2-GFP (S. pombe) [5]): binds

B5: Cdc5-HA (protein, UniProt P39964 1-757)
chain: MVVLKGGAWKNTEDEILKAAVSKYGKNQWARISSLLVRKTPKQCKARWYEWIDPSIKKTEWSREEDEKLLHLAKLLPTQWRTIAPIVGRTATQCLERYQKLLDDLEAKENEQLGLISGEGAEAAAPVNDPNSRLRFGEAEPNLETLPALPDAIDMDEDEKEMLSEARARLANTQGKKAKRKDREKQLELTRRLSHLQKRRELKAAGINIKLFRRKKNEMDYNASIPFEKKPAIGFYDTSEEDRQNFREKREADQKIIENGIRNNEMESEGRKFGHFEKPKPIDRVKKPNKDAQEEKMRRLAEAEQMSKRRKLNLPSPTVSQDELDKVVKLGFAGDRARAMTDTTPDANYSTNLLGKYTQIERATPLRTPISGELEGREDSVTIEVRNQLMRNREQSSLLGQESIPLQPGGTGYTGVTPSHAANGSALAAPQATPFRTPRDTFSINAAAERAGRLASERENKIRLKALRELLAKLPKPKNDYELMEPRFADETDVEATVGVLEEDATDRERRIQERIAEKERLAKARRSQVIQRDLIRPSVTQPEKWKRSLENEDPTANVLLKEMIALISSDAINYPFGNSKVKGTANKVPDLSNEEIERCRLLLKKEIGQLESDDYIQFEKEFLETYSALHNTSSLLPGLVIYEEDDEDVEAAEKFYTNDIQRDLAKKALECNKLENRVYDLVRSSYEQRNFLIKKISHAWKALQTERKNLTCYEFLYNQERLALPNRLEAAEIELSKMQQIEAYAQQDYARVTGQN
binding (Pir2-GFP (S. pombe) [4]): no binding
